# Source: PubChem BioAssay AID624417 (National Center for Advancing Translational Sciences (NCATS), 2012)
# About 6,400 (1.6%) of roughly 410,000 compounds were called active. Inconclusive results, whose numbers are uncertain, are shown with a selection of clear calls. The call rests on the fitted dose curve; in most records, active means well fitted inhibition curve with a large enough effect; inconclusive means small, poorly fitted or top-dose-only effect; inactive means no such curve, though single readings can be large or run the other way. Potencies of inconclusive entries are left out as doubtful fits.
# Target: Glucagon-like peptide 1 receptor (Homo sapiens) (UniProt P43220)
# Experiment: qHTS of GLP-1 Receptor Inverse Agonists (Inhibition Mode); further: nearly all actives have a fitted effect of over 55% in size
# Conditions: HEK293 GLP-1R CRE-luciferase, luminescence, 24 h, GLP-1R form is constitutively active; activity change, negative = inhibition: at 38.3 µM (top of the series) unless noted
# Summary of the method: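 Stable HEK293 clone (constitutively active GLP-1R + cAMP-response luciferase); 200 cells/uL plated, 12 h pre-culture, compound 24 hr, 37 deg C/5% CO2; detection reagent 12 min RT; luminescence.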
# On the % scale 0 is the no-effect control and ±100 the full control effect; potency means the concentration at half of the fitted maximal effect; tags describe the fitted curve by direction and shape.
# Chain of UniProt P43220 (P43220 whole entry, looked up): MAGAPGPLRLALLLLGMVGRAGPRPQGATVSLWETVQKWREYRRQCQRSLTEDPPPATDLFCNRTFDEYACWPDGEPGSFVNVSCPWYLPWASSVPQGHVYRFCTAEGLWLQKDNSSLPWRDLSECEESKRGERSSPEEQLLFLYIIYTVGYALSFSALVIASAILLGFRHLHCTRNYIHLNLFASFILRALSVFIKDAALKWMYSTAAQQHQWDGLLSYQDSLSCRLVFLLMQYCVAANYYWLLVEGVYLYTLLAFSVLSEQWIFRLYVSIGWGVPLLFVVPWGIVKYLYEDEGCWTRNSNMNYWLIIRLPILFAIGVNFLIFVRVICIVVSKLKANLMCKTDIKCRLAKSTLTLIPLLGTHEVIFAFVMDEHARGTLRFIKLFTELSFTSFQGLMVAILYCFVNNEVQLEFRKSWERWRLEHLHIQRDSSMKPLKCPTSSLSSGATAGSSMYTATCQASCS
SMILES,Potency,"activity change, negative = inhibition"
COc1ccccc1CNC(=O)C(=O)NCC(c1cccnc1)N1CCN(c2ccccc2)CC1 (centres undefined),inactive,
CCCCCCCn1ccc(=N)cc1,"inconclusive [inhibitor, full curve, poor fit]",
Cc1cc(N=Nc2ccc(Cl)cc2)cc(CN2CCCC2)c1O,"inconclusive [inhibitor, partial curve, poor fit]",
CCCc1ccc(S(=O)(=O)NCC2CCCN2CC)cc1 (centres undefined),inactive,
Cc1c(C)n(CC(O)CN2CCOCC2)c2ccccc12 (centres undefined),inactive,
CCOc1ccc(OCC)c(NC(=O)C2CCCN(S(=O)(=O)c3cccs3)C2)c1 (centres undefined),"inconclusive [inhibitor, partial curve, poor fit]",
CN(CC(=O)Nc1ccc(Cl)c(C(F)(F)F)c1)C(=O)c1ccc2c(c1)OCCO2,"inconclusive [inhibitor, single point]",
CN1CCN(c2ccc(NC(=S)NC(=O)c3cccc4c(Br)cccc34)cc2)CC1,inactive,
Cc1ccc2nc(-c3ccccc3)cc(C(=O)NNC(=O)c3csc(N4CCOCC4)n3)c2c1,"inconclusive [inhibitor, single point]",
CC(C)(C)c1ccc(OCC(=O)NN2Cc3ccccc3C2=N)cc1,"inconclusive [inhibitor, partial curve, poor fit]",
COc1ccc(/C=C2/SC(=S)N(NS(=O)(=O)c3ccccc3)C2=O)cc1,"inconclusive [inhibitor, single point]",
CCOC(=O)c1c(-c2cccc(C)c2)csc1NC(=O)c1c(-c2ccccc2)noc1C,"inconclusive [inhibitor, full curve]",
COc1cc(CN(CCc2c(C)[nH]c3ccc(C)cc23)C(=S)NC(C)(C)C)cc(OC)c1OC,"inconclusive [inhibitor, partial curve, poor fit]",
CCOC(=O)c1c(NC(=O)CN2CCCCC2)sc2c1CCCC2O (centres undefined),"inconclusive [inhibitor, partial curve]",
COc1ccc(-c2ccc(SC)nn2)cc1,"inconclusive [inhibitor, partial curve, poor fit]",
CN1OC[C@@H]2CN(S(=O)(=O)c3cccc4ccccc34)[C@H](c3ccc(N4CCCCC4)cc3)C[C@@H]21,"inconclusive [inhibitor, single point]",
OCCCCNCc1ccc(OCc2ccccc2)cc1,"inconclusive [inhibitor, partial curve, poor fit]",
CCOC(=O)C1(C(F)(F)F)N=C(C(F)(F)F)Nc2cc(C)c(C)cc21 (centres undefined),"inconclusive [inhibitor, partial curve, poor fit]",
Cc1cc(C)cc(NC(=O)CCC(=O)Nc2cc(C)on2)c1,"inconclusive [inhibitor, single point]",
CC1(C(=O)Nc2ccc(F)cc2F)CCN1C(=O)Cc1ccc(Cl)cc1Cl (centres undefined),"inconclusive [inhibitor, single point]",
CC1CCCN(S(=O)(=O)c2cc(C(=O)NCc3ccco3)ccc2Cl)C1 (centres undefined),"inconclusive [inhibitor, partial curve, poor fit]",
COc1ccc(NC(=O)CSc2nc(-c3ccco3)cc(C(F)(F)F)n2)cc1,"inconclusive [inhibitor, full curve, poor fit]",

SMILES,Potency,"activity change, negative = inhibition"
COc1cccc(Nc2nc(C(N)CC(C)C)cs2)n1 (centres undefined),"inconclusive [inhibitor, single point]",
Cc1ccc(S(=O)(=O)NC(CC(=O)NC2CCCC2)c2ccco2)cc1 (centres undefined),inactive,
CCOC(=O)Cn1nc(/C=C/c2ccc(C(C)C)cc2)ccc1=O,"inconclusive [inhibitor, single point]",
COc1ccc(Cl)cc1NC(=O)CCC(=O)N1CCOc2ccccc21,"inconclusive [inhibitor, single point]",
CCOc1ccc(OCCSc2nnnn2-c2ccccc2)cc1,"inconclusive [inhibitor, single point]",
Cc1cccc(NS(=O)(=O)c2ccc(C(=O)NCC(c3ccco3)N3CCCCC3)cc2)c1C (centres undefined),"inconclusive [inhibitor, partial curve, poor fit]",
O=C(CCCc1nc(-c2ccccc2Cl)no1)NC1CCCC1,inactive,
COc1ccc(S(=O)(=O)N2CCCN(Cc3cccc(F)c3)CC2)cc1,"inconclusive [inhibitor, partial curve, poor fit]",
COc1ccc(-n2cnc(=S)[nH]c2=S)cc1,"inconclusive [inhibitor, single point]",
O=C(c1ccccc1SCc1ccccc1)N1CCCCCC1,"inconclusive [inhibitor, partial curve, poor fit]",
CN1C(=O)C(CC(=O)Nc2ccc(F)cc2)N(CCCc2ccccc2)C1=S (centres undefined),"inconclusive [inhibitor, partial curve, poor fit]",
Cc1onc(-c2ccccc2Cl)c1C(=O)N1CCN(C/C=C/c2ccccc2)CC1,"inconclusive [inhibitor, partial curve, poor fit]",
CCOC(=O)C1(CCc2ccccc2)CCN(Cc2ccc(O)cc2)CC1,"inconclusive [inhibitor, partial curve, poor fit]",
CCOc1ccc(N2C(=O)CC(N)C2=O)cc1 (centres undefined),"inconclusive [inhibitor, single point]",
COC(=O)Cc1ccc(NC(=S)N2CCN(c3cc(Cl)ccc3C)CC2)cc1,,inactive: -13.2% [at 7.66 µM]
CC(C)(C)OC(=O)C(C(=O)OC(C)(C)C)c1ccc(Cl)nn1,"inconclusive [inhibitor, partial curve, poor fit]",
COc1ccc(NC(=O)c2c(-c3c(Cl)cccc3Cl)noc2C)c(OC)c1,"inconclusive [inhibitor, partial curve, poor fit]",
Cc1nnc2c(Nc3cccc(O)c3)nc3ccccc3n12,inactive,
CCOC(=O)CNc1nnc(SCC(=O)OCC)[nH]c1=O,inactive,
CCOC(=O)C1(Cc2cccc(Cl)c2)CCCN(C(=O)c2cc(C)[nH]n2)C1 (centres undefined),inactive,
COc1ccc(/C=N/Nc2ncnc3scc(-c4ccccc4)c23)cc1OC,inactive,
O=C(NNc1ccc(Cl)cc1)c1sccc1Cl,"inconclusive [inhibitor, partial curve, poor fit]",

SMILES,Potency,"activity change, negative = inhibition"
COc1ccccc1NC(=O)Nc1ccc(NC(=O)c2ccccc2O)cc1,"inconclusive [inhibitor, partial curve, poor fit]",
Cc1ccc(OCC(=O)N2N=C(C(F)(F)F)CC2(O)C(C)(C)C)cc1C (centres undefined),inactive,
CCc1ccc(N2C(=O)C3C4CCC(C4=C(C)C)C3C2=O)cc1 (centres undefined),"inconclusive [inhibitor, single point]",
CC(OC(=O)c1c(F)cccc1F)C(=O)NCCC1=CCCCC1 (centres undefined),"inconclusive [inhibitor, partial curve, poor fit]",
CCCc1nc2ccc(C(=O)OC)cn2c1Cc1ccccc1,"inconclusive [inhibitor, partial curve, poor fit]",
COCOCCn1cc(CN2CCS(=O)(=O)N(Cc3ccc(-c4ccc(OC)cc4)cc3)C(C(C)C)C2=O)nn1 (centres undefined),"inconclusive [inhibitor, partial curve, poor fit]",
CCNc1nc(NCc2ccccc2)nc(SCC(=O)Nc2ccccc2)n1,"inconclusive [inhibitor, single point]",
COc1cccc(N=Cc2ccc(O)cc2O)c1,inactive,
Cc1ccc(S(=O)(=O)NCC(=O)N(c2ccccc2)C(C(=O)NCc2ccccc2)c2ccco2)cc1 (centres undefined),"inconclusive [inhibitor, partial curve, poor fit]",
O=C(Nc1nnc([C@@H]2C[C@H](O)[C@@H](CO)O2)s1)Nc1ccccc1Oc1ccccc1,inactive,
Cc1ccc(S(=O)(=O)N2CCC(C(=O)N3CCN(c4ccccn4)CC3)CC2)cc1C,"inconclusive [inhibitor, partial curve, poor fit]",
CCn1nc(C)c([N+](=O)[O-])c1C(=O)NNC(=O)c1ccccc1Cl,"inconclusive [inhibitor, partial curve, poor fit]",
Cc1ccc2c(c1)N(C(=O)NCc1ccccc1)CCO2,inactive,
O=C(CC1Sc2ccccc2NC1=O)NNc1ccc(Cl)cc1Cl (centres undefined),"inconclusive [inhibitor, partial curve, poor fit]",
O=C(c1cc(COc2ccc(F)cc2F)on1)N1CCSCC1,"inconclusive [inhibitor, single point]",
CCCN(CCC)CCCOC(=O)c1ccc(Cl)cc1Cl,"inconclusive [inhibitor, partial curve, poor fit]",
CCC(C(=O)c1ccc2ncccc2c1)c1ccccc1 (centres undefined),"inconclusive [inhibitor, partial curve, poor fit]",
CC1=C(C(=O)OCC2CCCO2)C(c2ccc(C)o2)C2=C(CC(c3ccc(F)cc3)CC2=O)N1 (centres undefined),"inconclusive [inhibitor, partial curve, poor fit]",
O=C(CC1SC(=Nc2ccccc2)N(Cc2ccccn2)C1=O)Nc1ccc(Br)cc1 (centres undefined),"inconclusive [inhibitor, single point]",
O=C(Nc1ccc(OC(F)(F)F)cc1)c1ccc2nc[nH]c2c1,"inconclusive [inhibitor, single point]",
